Measured values as given in the supplement of paper PMC4967469.

Tests used:
Assay in all cases: Viability of human cancer cell lines after 72 h of drug (GDSC screen)
[1] = compound: CS(=O)(=O)N1CCN(Cc2cc3nc(-c4cccc5[nH]ncc45)nc(N4CCOCC4)c3s2)CC1 [GDC0941]; details: top dose 4 µM; screen: GDSC drug entry 1527; top dose inferred
Description: (§1)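 Human cancer cell lines in 384-well plates, medium with 10% serum, drug for 72 h over a 256-fold dose range (nine 2-fold or five 4-fold steps up to the top dose). Adherent lines were fixed and stained with the nucleic acid dye Syto60, suspension lines read with resazurin; signal relative to control wells, capped at 0 and 100%. One two-parameter sigmoid per drug and line, fitted in a mixed model over all curves with the slope shared within a line.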

[2] = compound: Cc1ccc(Nc2nccc(N(C)c3ccc4c(C)n(C)nc4c3)n2)cc1S(N)(=O)=O [Pazopanib]; details: top dose 8 µM
Description: as §1

[3] = compound: CC(C)[C@H](C(=O)Nc1ccc(C(=O)NO)cc1)c1ccccc1 [AR-42]; details: top dose 5.12 µM; top dose inferred
Description: as §1

[4] = compound: Cn1cc(C2=C(c3ccc(Cl)cc3Cl)C(=O)NC2=O)c2ccccc21 [SB 216763]; details: top dose 10 µM; top dose inferred
Description: as §1

[5] = compound: C[C@]12O[C@H](C[C@]1(O)CO)n1c3ccccc3c3c4c(c5c6ccccc6n2c5c31)CNC4=O [CEP-701]; details: top dose 2 µM; top dose inferred
Description: as §1

| Cell Line | AUC [1] | IC50 [1] | AUC [2] | IC50 [2] | AUC [3] | IC50 [3] | AUC [4] | IC50 [4] | AUC [5] | IC50 [5] |
| --- | --- | --- | --- | --- | --- | --- | --- | --- | --- | --- |
| PCI-6A (head and neck, adherent) | 0.949 | > 4000 nM | 0.988 | > 8000 nM | 0.351 | 125 nM | 0.971 | > 10000 nM | 0.433 | 82.1 nM |
| PCI-15A (head and neck, adherent) | 0.943 | > 4000 nM | 0.949 | > 8000 nM | 0.987 | > 5120 nM | 0.955 | > 10000 nM | 0.683 | 408 nM |
| PE/CA-PJ15 (head and neck, adherent) | 0.723 | 1140 nM | 0.986 | > 8000 nM | 0.75 | 1790 nM | 0.923 | > 10000 nM | 0.907 | > 2000 nM |
| PL4 (pancreas, adherent) | 0.797 | 1960 nM | 0.977 | > 8000 nM | 0.748 | 1690 nM | 0.98 | > 10000 nM | 0.854 | 1660 nM |
| RCM-1 (large intestine, adherent) | 0.923 | > 4000 nM | 0.975 | > 8000 nM | 0.594 | 613 nM | 0.97 | > 10000 nM | 0.791 | 1120 nM |
| RERF-LC-KJ (lung adenocarcinoma, adherent) | 0.89 | > 4000 nM | 0.932 | > 8000 nM | 0.913 | > 5120 nM | 0.987 | > 10000 nM | 0.782 | 864 nM |
| RERF-LC-MS (lung adenocarcinoma, adherent) | 0.75 | 1340 nM | 0.922 | > 8000 nM | 0.612 | 657 nM | 0.946 | > 10000 nM | 0.748 | 657 nM |
| RKN (ovary, adherent) | 0.725 | 1130 nM | 0.971 | > 8000 nM | 0.77 | 2060 nM | 0.986 | > 10000 nM | 0.724 | 562 nM |
| RMG-I (ovary, adherent) | 0.606 | 513 nM | 0.862 | > 8000 nM | 0.613 | 690 nM | 0.983 | > 10000 nM | 0.912 | > 2000 nM |
| RO82-W-1 (thyroid, adherent) | 0.777 | 2080 nM | 0.958 | > 8000 nM | 0.637 | 852 nM | 0.948 | > 10000 nM | 0.773 | 1010 nM |
| RPMI-2650 (head and neck, adherent) | 0.888 | > 4000 nM | 0.944 | > 8000 nM | 0.478 | 278 nM | 0.975 | > 10000 nM | 0.729 | 598 nM |
| RPMI-8866 (chronic myeloid leukaemia, suspension) | 0.305 | 74.4 nM | 0.966 | > 8000 nM | 0.342 | 121 nM | 0.95 | > 10000 nM | 0.383 | 61.3 nM |
| SAS (head and neck, adherent) | 0.752 | 1460 nM | 0.917 | > 8000 nM | 0.59 | 580 nM | 0.984 | > 10000 nM | 0.735 | 639 nM |
| SBC-3 (small cell lung carcinoma, adherent) | 0.883 | 3600 nM | 0.69 | 1610 nM | 0.252 | 67.4 nM | 0.989 | > 10000 nM | 0.773 | 710 nM |
| SBC-5 (small cell lung carcinoma, adherent) | 0.855 | 2310 nM | 0.991 | > 8000 nM | 0.528 | 376 nM | 0.993 | > 10000 nM | 0.653 | 303 nM |
| SCC-4 (head and neck, adherent) | 0.932 | > 4000 nM | 0.953 | > 8000 nM | 0.669 | 1040 nM | 0.951 | > 10000 nM | 0.727 | 633 nM |
| SCC-9 (head and neck, adherent) | 0.491 | 234 nM | 0.981 | > 8000 nM | 0.568 | 517 nM | 0.981 | > 10000 nM | 0.786 | 1130 nM |
| SCC-25 (head and neck, adherent) | 0.712 | 1090 nM | 0.935 | > 8000 nM | 0.501 | 323 nM | 0.984 | > 10000 nM | 0.727 | 608 nM |
| SF295 (glioma, adherent) | 0.776 | 1730 nM | 0.981 | > 8000 nM | 0.583 | 550 nM | 0.969 | > 10000 nM | 0.696 | 467 nM |
| SJRH30 (rhabdomyosarcoma, adherent) | 0.758 | 1430 nM | 0.915 | > 8000 nM | 0.526 | 377 nM | 0.985 | > 10000 nM | 0.551 | 174 nM |
| SK-HEP-1 (liver, adherent) | 0.891 | > 4000 nM | 0.894 | > 8000 nM | 0.655 | 835 nM | 0.989 | > 10000 nM | 0.315 | 39.6 nM |
| SK-MEL-3 (melanoma, adherent) | 0.858 | > 4000 nM | 0.925 | > 8000 nM | 0.598 | 623 nM | 0.983 | > 10000 nM | 0.54 | 163 nM |

IC50 is the fitted dose that halves viability relative to control wells, and lower means more sensitive; fits outside the tested doses are given as limits. The AUC spans the tested range (256-fold, ending at the top dose) of the same fit; values near 1 show little effect. For some of these results: The top dose, if marked as inferred, was calculated from the reported fits. For some of these results: Drugs with an entry number were screened twice under separate entries, and the two screens often disagree.
